Assay results taken from patent EP4711384A1 (WIO Bioscience Co., Ltd., dated 2026).

T1: human IL-18R1 and IL-18RAP on IL-18 Reporter HEK 293 Cells (human, UniProt Q13478 19-541; O95256 20-599)
T1 sequence (looked up) 1: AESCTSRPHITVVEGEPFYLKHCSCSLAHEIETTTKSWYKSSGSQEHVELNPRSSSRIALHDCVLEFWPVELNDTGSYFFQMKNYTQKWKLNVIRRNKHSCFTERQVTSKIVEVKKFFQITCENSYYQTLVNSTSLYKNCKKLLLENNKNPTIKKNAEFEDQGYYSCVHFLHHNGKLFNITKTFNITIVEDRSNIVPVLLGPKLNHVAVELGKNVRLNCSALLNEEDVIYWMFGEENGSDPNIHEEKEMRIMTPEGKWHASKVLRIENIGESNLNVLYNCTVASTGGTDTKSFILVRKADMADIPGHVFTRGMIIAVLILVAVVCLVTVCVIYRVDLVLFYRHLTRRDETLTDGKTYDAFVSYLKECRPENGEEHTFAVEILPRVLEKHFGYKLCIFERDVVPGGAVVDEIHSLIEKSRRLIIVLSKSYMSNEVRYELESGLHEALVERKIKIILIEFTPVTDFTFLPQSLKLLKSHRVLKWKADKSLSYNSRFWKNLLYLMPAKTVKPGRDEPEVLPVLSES
T1 sequence (looked up) 2: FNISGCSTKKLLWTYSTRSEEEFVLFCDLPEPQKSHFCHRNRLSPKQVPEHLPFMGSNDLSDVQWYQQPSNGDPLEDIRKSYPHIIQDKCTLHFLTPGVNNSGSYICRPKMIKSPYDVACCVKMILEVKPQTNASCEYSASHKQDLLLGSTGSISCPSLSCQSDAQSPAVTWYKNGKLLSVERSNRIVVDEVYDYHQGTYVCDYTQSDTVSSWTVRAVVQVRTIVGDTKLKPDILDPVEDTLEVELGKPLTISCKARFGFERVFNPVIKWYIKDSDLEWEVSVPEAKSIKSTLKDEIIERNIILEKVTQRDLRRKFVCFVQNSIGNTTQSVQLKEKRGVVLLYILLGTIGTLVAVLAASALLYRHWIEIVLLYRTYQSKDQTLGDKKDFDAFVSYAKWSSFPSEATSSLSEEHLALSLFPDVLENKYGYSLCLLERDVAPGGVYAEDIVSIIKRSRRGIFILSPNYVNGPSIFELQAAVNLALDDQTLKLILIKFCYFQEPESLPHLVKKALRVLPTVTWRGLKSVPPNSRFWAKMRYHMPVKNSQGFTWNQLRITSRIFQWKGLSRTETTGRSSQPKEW

T2: human IL-18RAP ECD-His (human, UniProt O95256 20-356)
T2 sequence: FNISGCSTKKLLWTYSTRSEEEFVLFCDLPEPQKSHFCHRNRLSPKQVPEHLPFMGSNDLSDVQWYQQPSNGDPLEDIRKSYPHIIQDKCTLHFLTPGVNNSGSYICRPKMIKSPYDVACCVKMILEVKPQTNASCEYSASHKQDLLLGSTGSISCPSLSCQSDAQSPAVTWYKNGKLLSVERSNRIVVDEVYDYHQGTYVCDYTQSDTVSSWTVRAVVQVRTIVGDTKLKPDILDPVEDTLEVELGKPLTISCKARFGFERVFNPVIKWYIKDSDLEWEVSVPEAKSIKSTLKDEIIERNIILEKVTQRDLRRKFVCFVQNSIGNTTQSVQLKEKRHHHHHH


Target: T1, human IL-18R1 and IL-18RAP on IL-18 …
Test: cell-based or functional assay

Binder	EC50 [ng/mL]	Top630nm
hzWio-02-29-hFc (bispecific antibody) EVQLLESGGGLVQPGGSLRLSCAASGYTYGPYCMGWFRQAPGKEREGVAAVGGDARTWYGNSVKGRFTISRDNSKNTLYLQMNSLRAEDTAVYYCAADFDRTVCSDDIYDYTYRGQGTLVTVSSGGGGSEVQLVESGGGLVQPGGSLRLSCAASGTAYDNACMGWFRQAPGKEREGVASIHLRDRTYYADSVKGRFTISRDNSKNTLYLQMNSLRAEDTAVYYCASSNICNALNLQGNTYWGQGTLVTVSS[human IgG1 Fc with changes not shown]	1.55	1.24
hzWio-02-30-hFc (bispecific antibody) EVQLVESGGGLVQPGGSLRLSCAASGFTYIPAYMGWFRQAPGKERERVASISSTEGSTTYADSVKGRFTISQDNSKNTLYLQMNSLRPEDTAVYYCAAYQFGAFRVWGQGTLVTVSSGGGGSEVQLVESGGGLVQPGGSLRLSCAASGSTFDEYDMGWYRQAPGGKCELVSTISTIDASTYYADSVKGRFTISRDNSKNTLYLQMNSLRAEDTAVYYCEADDRGTWDRGGCWGQGTLVTVSS[human IgG1 Fc with changes not shown]	4.43	0.451
hzWio-02-31-hFc (bispecific antibody) EVQLVESGGGLVQPGGSLRLSCAASGFTYIPAYMGWFRQAPGKERERVASISSTEGSTTYADSVKGRFTISQDNSKNTLYLQMNSLRPEDTAVYYCAAYQFGAFRVWGQGTLVTVSSGGGGSEVQLVESGGGLVQPGGSLRLSCAASGFTVHDMGWYRQAPGKECELVSTISSDASTYYADSVKGRFTISRDNAKNTLYLQMNSLRAEDTAVYYCAADSFTGLQLAECKADFGYWGQGTLVTVSS[human IgG1 Fc with changes not shown]	4.15	0.39
hzWio-02-44-hFc (bispecific antibody) EVQLLESGGGLVQPGGSLRLSCAASGYTYGPYCMGWFRQAPGKEREGVAAVGGDARTWYGNSVKGRFTISRDNSKNTLYLQMNSLRAEDTAVYYCAADFDRTVCSDDIYDYTYRGQGTLVTVSSGGGGSQVQLQESGGGSVQAGGSLRLSCVASGTTMSMNYMAWFRQAPGKEREGVASIFRSTHYADSVKGRFTIAEDSAKNTVYLQMNSLKPEDTAVYYCAAGRTKPYLTPLAESQYNYWGQGIQVTVSS[human IgG1 Fc with changes not shown]	4.69	0.301

Target: T1, human IL-18R1 and IL-18RAP on IL-18 …
Test: cell-based or functional assay
Remark: another data set of the same source

Binder	EC50 [ng/mL]	Top630nm
hzWio-02-23-L6-hFc (bispecific antibody) EVQLVESGGGLVQPGGSLRLSCAASGFTVHDMGWYRQAPGKECELVSTISSDASTYYADSVKGRFTISRDNAKNTLYLQMNSLRAEDTAVYYCAADSFTGLQLAECKADFGYWGQGTLVTVSSGGGSGGEVQLVESGGGLVQPGGSLRLSCAASGFTYIPAYMGWFRQAPGKERERVASISSTEGSTTYADSVKGRFTISQDNSKNTLYLQMNSLRPEDTAVYYCAAYQFGAFRVWGQGTLVTVSS[human IgG1 Fc with changes not shown]	1.92	1.4
hzWio-02-23-L7-hFc (bispecific antibody) EVQLVESGGGLVQPGGSLRLSCAASGFTVHDMGWYRQAPGKECELVSTISSDASTYYADSVKGRFTISRDNAKNTLYLQMNSLRAEDTAVYYCAADSFTGLQLAECKADFGYWGQGTLVTVSSGGSGGGEVQLVESGGGLVQPGGSLRLSCAASGFTYIPAYMGWFRQAPGKERERVASISSTEGSTTYADSVKGRFTISQDNSKNTLYLQMNSLRPEDTAVYYCAAYQFGAFRVWGQGTLVTVSS[human IgG1 Fc with changes not shown]	1.86	1.35
hzWio-02-23-L8-hFc (bispecific antibody) EVQLVESGGGLVQPGGSLRLSCAASGFTVHDMGWYRQAPGKECELVSTISSDASTYYADSVKGRFTISRDNAKNTLYLQMNSLRAEDTAVYYCAADSFTGLQLAECKADFGYWGQGTLVTVSSGSGGGGEVQLVESGGGLVQPGGSLRLSCAASGFTYIPAYMGWFRQAPGKERERVASISSTEGSTTYADSVKGRFTISQDNSKNTLYLQMNSLRPEDTAVYYCAAYQFGAFRVWGQGTLVTVSS[human IgG1 Fc with changes not shown]	1.89	1.44
hzWio-02-23-L9-hFc (bispecific antibody) EVQLVESGGGLVQPGGSLRLSCAASGFTVHDMGWYRQAPGKECELVSTISSDASTYYADSVKGRFTISRDNAKNTLYLQMNSLRAEDTAVYYCAADSFTGLQLAECKADFGYWGQGTLVTVSSGGSGSGEVQLVESGGGLVQPGGSLRLSCAASGFTYIPAYMGWFRQAPGKERERVASISSTEGSTTYADSVKGRFTISQDNSKNTLYLQMNSLRPEDTAVYYCAAYQFGAFRVWGQGTLVTVSS[human IgG1 Fc with changes not shown]	1.92	1.5

Target: T2, human IL-18RAP ECD-His
Test: BLI (Octet), AHC capture, antigen 100 nM

Binder	Kd [nM]	koff [s⁻¹]	kon [M⁻¹ s⁻¹]
Rap-A10 single-domain antibody fused with human Fc at the C-terminus (Fc fusion) QVQLQESGGGLVQAGGSLKLSCAASGYTYGPYCMGWFRQFPGKEREGVAAVGGDGRTWYGNSVKGRFTISQDNAKKTLYLQINALKPEDTAMYYCAADFDRTVCSDDIYDYTYRGQGTQVTVSS[human IgG1 Fc with changes not shown]	0.53	0.000687	1.3e+06
hzRap-A10 single-domain antibody fused with human Fc at the C-terminus (Fc fusion) EVQLLESGGGLVQPGGSLRLSCAASGYTYGPYCMGWFRQAPGKEREGVAAVGGDARTWYGNSVKGRFTISRDNSKNTLYLQMNSLRAEDTAVYYCAADFDRTVCSDDIYDYTYRGQGTLVTVSS[human IgG1 Fc with changes not shown]	0.986	5.04e-05	51100
Rap-C10 single-domain antibody fused with human Fc at the C-terminus (Fc fusion) QVQLQESGGGSVQPGGSLRLSCAASGFTYIPAYMGWFRQAPGKERERVASISSTDGSTTYADSVKGRFTVSQDTAKNTLYLQMNSLKPEDTAMYYCAAYQFGAFRVWGQGTQVTVSS[human IgG1 Fc with changes not shown]	1.73	0.00105	606000
hzRap-C10 single-domain antibody fused with human Fc at the C-terminus (Fc fusion) EVQLVESGGGLVQPGGSLRLSCAASGFTYIPAYMGWFRQAPGKERERVASISSTEGSTTYADSVKGRFTISQDNSKNTLYLQMNSLRPEDTAVYYCAAYQFGAFRVWGQGTLVTVSS[human IgG1 Fc with changes not shown]	6.24	0.00116	185000
Rap-F11 single-domain antibody fused with human Fc at the C-terminus (Fc fusion) QVQLQESGGGSVQPGGSLRLSCAASGFTYIPAYMGWFRQAPGKERERVASIKTDGSTTYADSVNGRFTIAQDTAKNTLYLQMDSLKPEDTAMYYCAAYQFGAFRVWGQGTQVTVSS[human IgG1 Fc with changes not shown]	4.58	0.000705	154000
hzRap-F11 single-domain antibody fused with human Fc at the C-terminus (Fc fusion) EVQLVESGGGLVQPGGSLRLSCAASGFTYIPAYMGWFRQAPGKERERVASIKTDASTTYADSVEGRFTISQDNAKNTLYLQMNSLRPEDTAVYYCAAYQFGAFRVWGQGTLVTVSS[human IgG1 Fc with changes not shown]	4.85	0.00116	239000
